Among all 310,000 compounds or so, about 2,200 (0.71%) showed an effect of 50% or more. Effects have a minus sign here. The list shows a part of the results.
Each molecule was assayed against human ether-à-go-go-related gene (hERG) potassium channel (human, UniProt Q12809) (assay: primary screen, population patch clamp on CHO cells stably expressing hERG).
human ether-à-go-go-related gene (hERG) potassium channel, sequence (Q12809 whole entry, looked up): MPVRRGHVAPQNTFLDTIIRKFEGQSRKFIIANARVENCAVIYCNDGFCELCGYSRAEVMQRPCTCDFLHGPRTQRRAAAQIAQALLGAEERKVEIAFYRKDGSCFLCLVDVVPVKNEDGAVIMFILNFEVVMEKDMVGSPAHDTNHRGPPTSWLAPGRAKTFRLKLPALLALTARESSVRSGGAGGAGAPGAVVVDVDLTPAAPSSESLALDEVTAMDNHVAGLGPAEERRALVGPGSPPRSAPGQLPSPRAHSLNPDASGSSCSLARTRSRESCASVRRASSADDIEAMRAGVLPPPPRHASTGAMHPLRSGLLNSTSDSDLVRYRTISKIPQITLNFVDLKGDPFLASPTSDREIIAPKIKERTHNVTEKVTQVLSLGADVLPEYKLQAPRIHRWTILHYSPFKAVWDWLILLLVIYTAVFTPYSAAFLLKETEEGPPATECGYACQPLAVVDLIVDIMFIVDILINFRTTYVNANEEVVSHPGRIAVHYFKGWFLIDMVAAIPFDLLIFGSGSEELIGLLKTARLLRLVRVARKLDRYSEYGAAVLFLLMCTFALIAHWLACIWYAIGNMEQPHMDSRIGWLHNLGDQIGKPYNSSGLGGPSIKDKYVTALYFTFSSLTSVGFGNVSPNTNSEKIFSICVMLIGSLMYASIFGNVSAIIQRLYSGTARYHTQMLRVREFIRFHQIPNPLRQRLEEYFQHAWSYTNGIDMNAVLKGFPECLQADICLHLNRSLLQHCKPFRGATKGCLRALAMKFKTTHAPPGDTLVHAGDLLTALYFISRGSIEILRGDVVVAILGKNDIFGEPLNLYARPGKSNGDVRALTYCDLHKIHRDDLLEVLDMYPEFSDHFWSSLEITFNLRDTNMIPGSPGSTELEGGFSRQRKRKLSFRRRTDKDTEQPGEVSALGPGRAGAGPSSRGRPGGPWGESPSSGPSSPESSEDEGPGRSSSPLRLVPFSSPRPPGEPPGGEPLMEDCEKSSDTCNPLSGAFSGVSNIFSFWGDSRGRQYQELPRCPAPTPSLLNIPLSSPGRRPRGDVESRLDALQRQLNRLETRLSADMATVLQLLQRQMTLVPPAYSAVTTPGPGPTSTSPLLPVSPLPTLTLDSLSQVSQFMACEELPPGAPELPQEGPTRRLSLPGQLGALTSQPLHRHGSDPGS

Question: Cc1ccc(OCC(=O)NCCC2=CCCCC2)cc1 was tested. Which “hERG current change (%, negative = inhibition) at 1uM” value did it give?
Answer: The value was 0.8%.

Question: O=C(COCC(=O)N/N=C/c1ccccc1F)N/N=C/c1ccccc1F was tested. Which “hERG current change (%, negative = inhibition) at 1uM” value did it give?
Answer: The value was -31.5%.

Question: With CCn1cc(C(c2ccccc2)C(C(C)=O)[N+](=O)[O-])c2ccccc21 (centres unmarked) as the molecule, how does the “hERG current change (%, negative = inhibition) at 1uM” value read?
Answer: The value was 9.37%.

Question: For OC(COc1ccccc1)CN1CCN(C(c2ccccc2)c2ccccc2)CC1 (centres unmarked), which “hERG current change (%, negative = inhibition) at 1uM” value is on record?
Answer: The value was -24.1%.

Question: Which “hERG current change (%, negative = inhibition) at 1uM” value does the source give for COc1ccc(C(=O)N(C)Cc2ccc(C)o2)cc1OC1CCN(C(C)C)CC1 here?
Answer: Its value is 9.04%.

Question: For CC(C(=O)O)n1c2ccccc2c2cnn(C)c(=O)c21 (centres unmarked), which “hERG current change (%, negative = inhibition) at 1uM” value is on record?
Answer: Its value is 7.3%.

Question: With Cc1cc(OCC(=O)N2CCC(C(N)=O)CC2)c2c(C)cc(=O)oc2c1 as the molecule, how does the “hERG current change (%, negative = inhibition) at 1uM” value read?
Answer: Its value is 11.6%.

Question: Cc1ccc(NC(=O)c2cc(S(=O)(=O)N(C)C)ccc2N2CCCC2)cc1F was tested. Which “hERG current change (%, negative = inhibition) at 1uM” value did it give?
Answer: The value was 7.97%.

Question: CC(SC1CCCC1)C(=O)Nc1ccnn1C(C)C (centres unmarked) was tested. Which “hERG current change (%, negative = inhibition) at 1uM” value did it give?
Answer: Its value is 7.28%.

Question: How did the “hERG current change (%, negative = inhibition) at 1uM” value turn out when CC(=O)Nc1ccc(S(=O)(=O)NNC(=O)COc2cccc(C)c2)cc1 was run?
Answer: The value was 15.7%.

Question: For Cc1cc2oc(C(=O)N(Cc3cccs3)C3CCS(=O)(=O)C3)cc(=O)c2cc1Cl (centres unmarked), which “hERG current change (%, negative = inhibition) at 1uM” value is on record?
Answer: Its value is 5.61%.

Question: Which “hERG current change (%, negative = inhibition) at 1uM” value does the source give for COc1ccc(CCNC(=O)c2c(C)nn(-c3ccccc3)c2Cl)cc1 here?
Answer: Its value is 5.45%.

Question: Which “hERG current change (%, negative = inhibition) at 1uM” value does the source give for CCCCCCC1CC(C)(/C(C)=N/NC(N)=O)OC1=O (centres unmarked) here?
Answer: Its value is -18.1%.

Question: With CCNC(=O)CSc1ncnc2sccc12 as the molecule, how does the “hERG current change (%, negative = inhibition) at 1uM” value read?
Answer: Its value is 1.77%.

Question: How did the “hERG current change (%, negative = inhibition) at 1uM” value turn out when O=C(Cn1cc(C(F)(F)F)ccc1=O)Nc1cccc(S(=O)(=O)N2CCOCC2)c1 was run?
Answer: The value was 0.507%.

Question: For COc1ccc(-c2csc(N(CCCN(C)C)C(=O)c3ccc(F)cc3)n2)cc1.Cl, which “hERG current change (%, negative = inhibition) at 1uM” value is on record?
Answer: The value was -7.25%.

Question: How did the “hERG current change (%, negative = inhibition) at 1uM” value turn out when COc1ccc(CN(CC(=O)NCc2ccccc2)C(=O)CCC(=O)Nc2ccccn2)cc1 was run?
Answer: The value was -14.2%.

Question: For Cc1cccc(-c2ccc3ncnc(NCc4cccnc4)c3c2)c1, which “hERG current change (%, negative = inhibition) at 1uM” value is on record?
Answer: The value was 4.75%.

Question: O=C(CN1CCN(S(=O)(=O)N2CCCCC2)CC1)Nc1cc(Cl)ccc1Cl was tested. Which “hERG current change (%, negative = inhibition) at 1uM” value did it give?
Answer: Its value is 12.5%.

Question: How did the “hERG current change (%, negative = inhibition) at 1uM” value turn out when Cc1ccc(-n2nnnc2SCC(=O)NNC(=O)c2ccc([N+](=O)[O-])cc2)cc1 was run?
Answer: The value was 11.1%.

Question: Which “hERG current change (%, negative = inhibition) at 1uM” value does the source give for COc1cccc(C(C)NC(=O)C2CCCO2)c1 (centres unmarked) here?
Answer: Its value is 11.5%.

Question: For O=C(NCCC1=CCCCC1)C1CCC(=O)N(Cc2ccc(Cl)cc2)C1 (centres unmarked), which “hERG current change (%, negative = inhibition) at 1uM” value is on record?
Answer: The value was 13.2%.

Question: For NC(=O)CCC(=O)N1CCCC(C(=O)c2ccc(C(F)(F)F)cc2)C1 (centres unmarked), which “hERG current change (%, negative = inhibition) at 1uM” value is on record?
Answer: Its value is 5.3%.

Question: Which “hERG current change (%, negative = inhibition) at 1uM” value does the source give for CCC(CC)c1nnc(NC(=O)CN2C(=O)NC3(CCCC3)C2=O)s1 here?
Answer: Its value is 9.54%.

Question: OCC1(Cc2ccc(Cl)cc2)CCN(CC2CC=CCC2)CC1 (centres unmarked) was tested. Which “hERG current change (%, negative = inhibition) at 1uM” value did it give?
Answer: The value was -41.6%.

Question: For N#CC1=C(N)Oc2cc(N)ccc2C1C1CC=CCC1 (centres unmarked), which “hERG current change (%, negative = inhibition) at 1uM” value is on record?
Answer: Its value is -5.53%.

Question: Which “hERG current change (%, negative = inhibition) at 1uM” value does the source give for COc1cc(C#Cc2ccc3cc(CCCO)oc(=O)c3c2)cc(OC)c1 here?
Answer: Its value is 11%.

Question: For O=C(c1ccc(N2CCN(C(=O)c3ccccc3)CC2)cc1)c1cccc(F)c1, which “hERG current change (%, negative = inhibition) at 1uM” value is on record?
Answer: Its value is -18.3%.

Question: With CC(C)Oc1ccc(Cn2c(=O)oc3ccccc32)cc1 as the molecule, how does the “hERG current change (%, negative = inhibition) at 1uM” value read?
Answer: The value was 14.6%.

Question: How did the “hERG current change (%, negative = inhibition) at 1uM” value turn out when Cc1ccc(C(=O)Nc2ccccc2C(=O)N2CC3(C)CC2CC(C)(C)C3)cc1 (centres unmarked) was run?
Answer: The value was 16%.

Question: With Cc1ccc(Oc2nc3ccccn3c(=O)c2/C=C(\C#N)C(=O)NC2CCS(=O)(=O)C2)cc1 (centres unmarked) as the molecule, how does the “hERG current change (%, negative = inhibition) at 1uM” value read?
Answer: The value was 11.3%.

Question: For O=C(NNc1nc2cc3c(cc2s1)OCO3)c1ccccc1, which “hERG current change (%, negative = inhibition) at 1uM” value is on record?
Answer: Its value is 13.3%.

Question: COc1ccc(/C=C/C(=O)c2c(O)n(CCC3=CCCCC3)c(=O)[nH]c2=O)cc1 was tested. Which “hERG current change (%, negative = inhibition) at 1uM” value did it give?
Answer: The value was 10.8%.

Question: Which “hERG current change (%, negative = inhibition) at 1uM” value does the source give for Cn1c2c(c(=O)n(C)c1=O)C(CC(=O)Nc1ccccc1)C(=O)N2 (centres unmarked) here?
Answer: Its value is 3.9%.

Question: For COc1ccc2cc(-c3ccsc3)ncc2c1, which “hERG current change (%, negative = inhibition) at 1uM” value is on record?
Answer: The value was 12.2%.

Question: With COc1cccc(/C=N/NC(=O)c2ccoc2C)c1O as the molecule, how does the “hERG current change (%, negative = inhibition) at 1uM” value read?
Answer: Its value is 4.73%.

Question: For O=C(COC(=O)c1cncc(Br)c1)NC1CC1, which “hERG current change (%, negative = inhibition) at 1uM” value is on record?
Answer: The value was 3.48%.

Question: Which “hERG current change (%, negative = inhibition) at 1uM” value does the source give for Cc1cc(C)c(S(=O)(=O)N(C)CC(=O)NCCCn2ccnc2)c(C)c1 here?
Answer: The value was -4.47%.

Question: CCc1nn(CC(=O)NCCCN(C)Cc2ccccc2)c(=O)c2cc3sc(C)cc3n12 was tested. Which “hERG current change (%, negative = inhibition) at 1uM” value did it give?
Answer: The value was -47%.

Question: Which “hERG current change (%, negative = inhibition) at 1uM” value does the source give for Cc1ccccc1OCC(O)CN1CCC(C)CC1.Cl (centres unmarked) here?
Answer: Its value is -6.73%.

Question: How did the “hERG current change (%, negative = inhibition) at 1uM” value turn out when C/C(CCc1ccc2c(c1)OCO2)=N\NC(=S)NC(C)C was run?
Answer: Its value is -33.9%.

Question: How did the “hERG current change (%, negative = inhibition) at 1uM” value turn out when CN(C)CCNC(=O)C1(O)c2cc(Br)ccc2NC(=O)N1c1ccc(Cl)cc1 (centres unmarked) was run?
Answer: The value was 15.2%.

Question: For O=C1CCC([N+](=O)[O-])C(c2ccccc2C(F)(F)F)N1 (centres unmarked), which “hERG current change (%, negative = inhibition) at 1uM” value is on record?
Answer: Its value is 12.7%.

Question: Which “hERG current change (%, negative = inhibition) at 1uM” value does the source give for Cc1nc2ncnn2c(C)c1CCC(=O)NCc1ccc2c(c1)OCO2 here?
Answer: The value was -13.5%.

Question: How did the “hERG current change (%, negative = inhibition) at 1uM” value turn out when Cc1ccc(OCC(=O)c2cc(C)c(C)cc2C)c([N+](=O)[O-])n1 was run?
Answer: Its value is 10.5%.

Question: For Cc1ccnc(N(C(=O)Nc2ccccc2)C2=NCC(C)(C)S2)c1, which “hERG current change (%, negative = inhibition) at 1uM” value is on record?
Answer: The value was 9.87%.

Question: With CCN1C(=O)C(CC(=O)Nc2ccc(OC)cc2)N(Cc2cccnc2)C1=S (centres unmarked) as the molecule, how does the “hERG current change (%, negative = inhibition) at 1uM” value read?
Answer: The value was -11.1%.

Question: How did the “hERG current change (%, negative = inhibition) at 1uM” value turn out when COc1cccc(C(=O)Nc2ccc3c(c2)OCO3)c1OC was run?
Answer: The value was 9.88%.

Question: Which “hERG current change (%, negative = inhibition) at 1uM” value does the source give for Cc1ccc(NC(=O)C2CCCN2C(=O)NC2CCCCC2)cc1 (centres unmarked) here?
Answer: The value was 0.103%.

Question: How did the “hERG current change (%, negative = inhibition) at 1uM” value turn out when Cc1cc(C(=O)NCC(=O)O)c(C)o1 was run?
Answer: The value was 10.7%.

Question: Cc1ccccc1-c1nnn(CC(=O)N(C)CC(=O)Nc2ccccc2C(F)(F)F)n1 was tested. Which “hERG current change (%, negative = inhibition) at 1uM” value did it give?
Answer: Its value is 1.4%.

Question: With CC(C)(C)P(=O)(CO)c1ccccc1 (centres unmarked) as the molecule, how does the “hERG current change (%, negative = inhibition) at 1uM” value read?
Answer: The value was 2.82%.

Question: How did the “hERG current change (%, negative = inhibition) at 1uM” value turn out when CCOc1ccccc1NC(=O)COC(=O)CNS(=O)(=O)c1ccc(C)cc1 was run?
Answer: The value was 17%.

Question: With O=C(Cn1c(=O)n(CC(=O)NCc2ccccc2)c2ccccc21)NCc1ccccc1 as the molecule, how does the “hERG current change (%, negative = inhibition) at 1uM” value read?
Answer: The value was 15.6%.

Question: With O=C1CCC(=O)N1CNc1cccnc1 as the molecule, how does the “hERG current change (%, negative = inhibition) at 1uM” value read?
Answer: The value was -7.39%.

Question: With Cc1ncc(CO)c(CO)c1O.Cl as the molecule, how does the “hERG current change (%, negative = inhibition) at 1uM” value read?
Answer: Its value is 9.35%.

Question: Which “hERG current change (%, negative = inhibition) at 1uM” value does the source give for CCOc1ccccc1C(=O)NCC(=O)NCC(C)(C)N1CCOCC1 here?
Answer: Its value is 2.8%.

Question: Fc1ccc(CSc2nc3ncccc3[nH]2)cc1 was tested. Which “hERG current change (%, negative = inhibition) at 1uM” value did it give?
Answer: Its value is 1.68%.

Question: For Cc1cccc(-c2nc3ccccc3c(=O)n2NC(=O)c2cccnc2Cl)c1, which “hERG current change (%, negative = inhibition) at 1uM” value is on record?
Answer: The value was 15.2%.
